Where “and” joins values, the source holds several entries; their conditions need not be identical. Equal entries are not always repeated. About 2,100 (0.72%) of roughly 290,000 compounds were called active. Inconclusive results, whose numbers are uncertain, are shown with a selection of clear calls. Calls follow the shape of the dose curve; as a rule, active = well fitted inhibition curve with a large enough effect; inconclusive = small, poorly fitted or top-dose-only effect, or effect the other way; inactive = flat fitted curve, though single readings scatter. A potency beside an inconclusive call is a rough fit, not a confirmed value. More than one record can exist for a structure, and the calls need not agree.
target: Fructose-bisphosphate aldolase (Giardia intestinalis (strain ATCC 50803 / WB clone C6)) (UniProt A8B2U2); assay: qHTS Assay for Inhibitors of Fructose-1,6-bisphosphate Aldolase from Giardia Lamblia; settings: purified Giardia FBPA; activity, negative = inhibition: at 59.6 µM (top of the series) unless noted; also: nearly all actives have a fitted effect of over 55% in size
Sequence of UniProt A8B2U2 (A8B2U2 whole entry, looked up): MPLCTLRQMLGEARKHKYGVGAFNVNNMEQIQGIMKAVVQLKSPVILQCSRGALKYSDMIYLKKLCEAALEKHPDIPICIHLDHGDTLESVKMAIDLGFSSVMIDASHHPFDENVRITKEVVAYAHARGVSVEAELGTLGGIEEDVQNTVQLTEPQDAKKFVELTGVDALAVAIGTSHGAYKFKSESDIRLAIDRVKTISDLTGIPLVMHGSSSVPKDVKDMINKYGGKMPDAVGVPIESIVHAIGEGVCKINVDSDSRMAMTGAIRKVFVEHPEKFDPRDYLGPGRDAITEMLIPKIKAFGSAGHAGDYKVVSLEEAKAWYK
Outline: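 Giardia FBPA (40 nM reagent) was preincubated 10 min at RT with compound (up to 57.5 uM final), then substrate plus GAPDH/TPI/NAD/arsenate coupling system with diaphorase/resazurin was added; resorufin fluorescence (525/598 nm) was read after 20 min.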
% is scaled to controls: 0 for no effect and ±100 for the full control effect; potency is read from the fitted curve at half-maximal effect; tags tell the direction and shape of the fitted curve.

Row | SMILES | Potency | activity, negative = inhibition
1 | CCCOP(=O)(OCCC)C(Nc1ccc(C(=O)O)cc1)c1ccccc1 (centres undefined) | inconclusive: 17.7 µM [activator, single point] | 
2 | Cc1ccc(NC(=S)c2ccncc2)c(C)c1 | active: 15.8 µM | 
3 | CCC(C)c1ccc(S(=O)(=O)N2CCN(C(C)CC(=O)O)CC2)cc1 (centres undefined) | inconclusive: 17.7 µM [inhibitor, partial curve] | 
4 | Brc1ccc2nc(-c3c[nH]c4ccccc34)cn2c1 | inconclusive: 15.8 µM [inhibitor, partial curve] | 
5 | COc1ccc(Cn2cnc3c(N)c(C)c(C)cc32)cc1 |  | inactive: -1.45%
6 | NS(=O)(=O)c1ccc(NC(=S)Nc2ccc(F)c(F)c2)cc1 | inconclusive: 44.6 µM [inhibitor, single point] | 
7 | Nc1nc(Cl)nc2c1ncn2[C@@H]1O[C@H](COP(=O)(O)OP(=O)(O)OP(=O)(O)O)[C@H](O)[C@H]1O |  | inactive: -1.79%
8 | Cc1ccc(S(=O)(=O)CCc2ccncc2)cc1 | inconclusive: 39.8 µM [inhibitor, single point] | 
9 | O=c1cccccc1NCc1ccccc1 | active: 8.89 µM | 
10 | O=[N+]([O-])c1ccc(CN2CCCCCC2)cc1 | inconclusive: 25.1 µM [inhibitor, single point] | 
11 | O=c1cc(COc2ccc(Cl)c(Cl)c2)nc2sccn12 |  | inactive: -0.533%
12 | Cc1cc(C)cc(N2C(=O)CC(Sc3ncn[nH]3)C2=O)c1 (centres undefined) | active: 19.9 µM | 
13 | Cc1cc(=O)n(Cc2ccccc2)c(O)c1C#N | inconclusive: 7.94 µM [inhibitor, partial curve] | 
14 | CCc1nnc(NC(=O)CSc2nc3c(c(=O)n2-c2ccccc2OC)SCC3)s1 | inconclusive: 35.4 µM [inhibitor, single point] | 
15 | CCCC(=O)Nc1ccc(C(=O)NN=C(C2CC2)C2CC2)cc1 |  | inactive: 1.19%
16 | NC(N)=NS(=O)(=O)c1ccc(NC(=S)NC(=O)c2ccncc2)cc1 | active: 11.2 µM | 
17 | CCOC(=O)Cc1nnc(NC(=O)c2ncn[nH]2)s1 | inconclusive: 1.99 µM [inhibitor, single point] | 
18 | COc1ccccc1N1CCN(CC(=O)Nc2ccc(CN3CCCCC3)cc2)CC1 | inconclusive: 19.9 µM [inhibitor, partial curve] | 
19 | COC(=O)c1c(NC(=O)CCNCc2ccco2)sc2c1CCC2 | inconclusive: 12.6 µM [inhibitor, partial curve] | 
20 | Cc1ccc2nc(SCc3nc4c(cnn4-c4ccccc4)c(=O)[nH]3)[nH]c2c1 |  | inactive: 3.08%
21 | O=[N+]([O-])c1ccc(N2CCCCC2)s1 | inconclusive: 35.4 µM [inhibitor, single point] | 
22 | NC(CO)C(=O)NNCc1ccc(O)c(O)c1O (centres undefined) | active: 12.6 µM and active: 7.92 µM | 
23 | CC1CCCCC1NC(=O)c1ccc(S(=O)(=O)N2CCN(C)CC2)cc1 (centres undefined) | inconclusive: 3.98 µM [inhibitor, single point] | 
24 | CCOc1ccc(NC(=O)c2cccc3ccccc23)cc1 |  | inactive: -5.43%
25 | C=CCc1c(C)nc(C)nc1N/N=C/c1ccccc1 | inconclusive: 19.9 µM [inhibitor, partial curve] | 

Row | SMILES | Potency | activity, negative = inhibition
26 | C/C(CC(=O)NC(C)c1ccccc1)=N\NC(N)=S (centres undefined) | inconclusive: 15.8 µM [inhibitor, single point] | 
27 | O=C1CNC(=S)N1c1nc2ccccc2s1 | inconclusive: 35.4 µM [inhibitor, single point] | 
28 | CCOC(=O)N1CCN(Cc2ccccn2)CC1 | active: 14.1 µM | 
29 | O=C(COc1ccc2c(c1)oc(=O)c1ccccc12)NC(Cc1ccc(Cl)cc1)C(=O)O (centres undefined) | inconclusive: 28.2 µM [activator, single point] | 
30 | Cc1ccc(C(C)C)cc1S(=O)(=O)NC1CC(C)(C)NC(C)(C)C1 |  | inactive: -1.59%
31 | COCCn1c(=S)[nH]c2ncccc2c1=O | inconclusive: 14.1 µM [inhibitor, partial curve] | 
32 | CN(C(=O)COC(=O)CNC(=O)c1ccc2ccccc2c1)c1c(N)n(Cc2ccccc2)c(=O)[nH]c1=O | inconclusive: 3.55 µM [activator, partial curve] | 
33 | Cc1ccc(NC(=O)/C=C/c2ccc3c(c2)OCO3)nc1 |  | inactive: -3.8%
34 | CC(/C=N/NC(=O)c1cccs1)=C\c1ccco1 | inconclusive: 8.89 µM [inhibitor, partial curve] | 
35 | N#C/C(=C\c1ccc(O)c(O)c1)C(=O)Nc1cccc2ncccc12 | inconclusive: 14.1 µM [inhibitor, partial curve] | 
36 | O=C(CSc1n[nH]c(-c2ccncc2)n1)Nc1ccccc1 | inconclusive: 39.8 µM [inhibitor, single point] | 
37 | COc1ccc(NC(=S)NC(=O)Cc2ccccc2)c(OC)c1 |  | inactive: -9.68%
38 | COc1ccc(S(=O)(=O)Nc2c(C)nc3nc(C)[nH]n3c2=O)cc1 | inconclusive: 39.8 µM [inhibitor, single point] | 
39 | CC(C)(C)c1cc[n+](/C(C(=S)Nc2ccccc2F)=C(/[O-])c2ccc3c(c2)OCCO3)cc1 | inconclusive: 15.8 µM [inhibitor, partial curve] | 
40 | Cc1cc(N/N=C/c2ccc(F)cc2)nc(-n2nc(C)cc2C)n1 |  | inactive: 6.64%
41 | Cc1[nH][nH]c(=O)c1C(c1c(C)[nH][nH]c1=O)c1cn(Cc2ccc(F)cc2)c2ccccc12 | inconclusive: 6.29 µM [inhibitor, partial curve] | 
42 | O=CN/C=C/c1cc(O)ccc1O | inconclusive: 14.1 µM [inhibitor, partial curve] | 
43 | S=c1[nH]nc(-c2cccs2)n1C1CCCCC1 | inconclusive: 22.3 µM [inhibitor, single point] | 
44 | CC(=O)N1CCN(c2ccc(NCc3ccc(C(C)C)cc3)cc2)CC1 | inconclusive: 15.8 µM [inhibitor, partial curve] | 
45 | CCOC(=O)C1CCCN(C2=C(NS(=O)(=O)c3ccc(Br)cc3)C(=O)c3ccccc3C2=O)C1 (centres undefined) | inconclusive: 10 µM [inhibitor, partial curve] | 
46 | CSc1ccc(CN2CCN(Cc3ccccc3Cl)CC2)cc1 | inconclusive: 5 µM [inhibitor, partial curve] | 
47 | O=S(=O)(Nc1cccc(S(=O)(=O)N2CCOCC2)c1)c1cccs1 |  | inactive: -3.09%
48 | Cc1ccccc1C(=O)Nc1ccnn1C1CCN(C(=O)c2cnsn2)CC1 |  | inactive: -12%
49 | CCOC(=O)c1cc(CC)sc1NC(=O)CCC(=O)O | inconclusive: 17.7 µM [activator, single point] | 
50 | Cc1cc(C(=O)COc2ccc(F)cc2Br)c(C)n1C |  | inactive: -0.564%

Row | SMILES | Potency | activity, negative = inhibition
51 | N.N.O=C(O)C1(C(=O)O)CCC1.[Pt] | active: 17.7 µM | 
52 | CCOC(=O)c1ccc(NC(=O)CC2Sc3ncnn3C2=O)cc1 (centres undefined) | inconclusive: 7.92 µM [inhibitor, partial curve] | 
53 | CC(C)(C=O)C1=CC(=O)c2ccccc2C1=O | inconclusive: 2.23 µM [inhibitor, full curve] | 
54 | Cc1nc(SCC(=O)NCC2CCCO2)c2c3c(sc2n1)CCCC3 (centres undefined) | inconclusive: 28.2 µM [activator, partial curve] | 
55 | CCC(=O)Nc1nc(C)c(-c2csc(Nc3ccc(C(=O)O)cc3)n2)s1 | inconclusive: 15.8 µM [inhibitor, partial curve] | 
56 | Nc1nc(CSc2nc3ccccc3s2)nc(N2CCOCC2)n1 |  | inactive: 1.47%
57 | C=CCNCCCCOc1ccc(OCc2ccccc2)cc1 | inconclusive: 15.8 µM [inhibitor, partial curve] | 
58 | CCOc1ccc(C2NC(=O)C(C#N)=C(S)N2c2ccc(OC)cc2)cc1OC (centres undefined) | inconclusive: 9.98 µM [inhibitor, partial curve] | 
59 | O=C(/C=C/c1ccccc1)Nc1cccc(S(=O)(=O)Nc2ccccc2F)c1 |  | inactive: -0.271%
60 | COc1cccc(CN2CCN(Cc3cccc(Oc4ccccc4)c3)CC2)c1OC | active: 15.8 µM | 
61 | CNNC(=S)Nc1cccc(C(F)(F)F)c1 |  | inactive: -22.5%
62 | O=C(CO/N=C1\CCCc2nonc21)Nc1ccccc1Cl |  | inactive: 3.85%
63 | Cc1cccc(C(=O)NCCc2n[nH]c(=S)n2C)c1 | inconclusive: 12.6 µM [inhibitor, partial curve] | 
64 | CC(NC(=O)C1CCN(S(=O)(=O)c2cccc3nonc23)CC1)c1ccccc1 (centres undefined) |  | inactive: -5.88%
65 | CN(CC(=O)O)S(=O)(=O)c1cccs1 | inconclusive: 22.3 µM [activator, single point] | 
66 | Cc1nnc(SCC2=C(C(=O)O)N3C(=O)C(NC(=O)Cn4nc(C(F)F)cc4C)C3SC2)s1 (centres undefined) | active: 14.1 µM | 
67 | CC1CCN(C(=O)C2CCN(CCCc3ccccc3)CC2)CC1 | inconclusive: 15.8 µM [inhibitor, partial curve] | 
68 | CC(=O)N(Cc1ccc(F)cc1)C1=C(NCCc2ccccc2)C(=O)c2ccccc2C1=O | inconclusive: 0.998 µM [inhibitor, full curve] | 
69 | O=C1c2cc(F)ccc2-n2c1nc1ccccc1c2=O | inconclusive: 2 µM [inhibitor, full curve] | 
70 | Cc1ccc(S(=O)(=O)N2C(=O)c3cccc4cccc2c34)cc1 | inconclusive: 15.8 µM [inhibitor, single point] | 
71 | Cc1ccc(/C=N/Nc2nc(C)cc(C)n2)cc1 | inconclusive: 19.9 µM [inhibitor, single point] | 
72 | COC(=O)C1=C(C)NC(C)=C(C(=O)OCCN(C)Cc2ccccc2)[C@H]1c1cccc([N+](=O)[O-])c1 |  | inactive: -4% [at 21.7 µM]
73 | O=C(Nc1ccc(OC(F)(F)F)cc1)c1ccc2nc[nH]c2c1 | inconclusive: 39.8 µM [inhibitor, single point] | 
74 | COc1ccc(C(=O)NC(=S)N2CC(C)OC(C)C2)cc1OC (centres undefined) | inconclusive: 14.1 µM [inhibitor, partial curve] | 

From PubChem BioAssay AID2451 (National Center for Advancing Translational Sciences (NCATS), 2010)
